For 2 molecules, EC50 (read off the curve) results are on record in patent US20220315655A1.

For this experiment, the target named is recombinant human CD47 soluble protein (human) (UniProt Q08722). In words: sandwich ELISA, antibody captured on anti-human Fc, biotinylated rec. human CD47 titrated (x axis), fluorescence. In general terms: In an ELISA, binding on a coated surface is turned into a signal by an enzyme label.

Usually EC50 (read off the curve) stands for the concentration giving half of the maximal effect.

UniProt Q08722, sequence (Q08722 19-139 limits assumed): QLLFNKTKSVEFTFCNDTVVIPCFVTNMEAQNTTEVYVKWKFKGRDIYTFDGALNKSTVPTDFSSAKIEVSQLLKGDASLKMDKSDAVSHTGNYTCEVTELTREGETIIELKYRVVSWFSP

B1: K38 bsAb (CD47xPD-L1 bispecific antibody with the K38 CD47 arm) (bispecific antibody, part only; not given: PD-L1 lambda arm, part only)
heavy: [sequence of about 120 residues omitted]ASTKGPSVFPLAPCSRSTSESTAALGCLVKDYFPEPVTVSWNSGALTSGVHTFPAVLQSSGLYSLSSVVTVPSSSLGTKTYTCNVDHKPSNTKVDKRV[sequence of human IgG4 Fc with S228P (EU numbers) omitted]
light: DIQMTQSPSSLSASVGDRVTITCRASQVIANWLNWYQQKPGKAPKLLIYAGSHLQSGVPSRFSGSGSGTDFTLTISSLQPEDFATYYCQQMHPRAPKTFGQGTKVEIKRTVAAPSVFIFPPSDEQLKSGTASVVCLLNNFYPREAKVQWKVDNALQSGNSQESVTEQDSKDSTYSLSSTLTLSKADYEKHKVYACEVTHQGLSSPVTKSFNRGEC
In the case of B1, the EC50 (read off the curve) turned out to be 0.07 nM.

B2: K33 bsAb (CD47xPD-L1 bispecific antibody with the K33 CD47 arm) (bispecific antibody, part only; not given: PD-L1 lambda arm, part only)
heavy: [sequence of about 120 residues omitted]ASTKGPSVFPLAPCSRSTSESTAALGCLVKDYFPEPVTVSWNSGALTSGVHTFPAVLQSSGLYSLSSVVTVPSSSLGTKTYTCNVDHKPSNTKVDKRV[sequence of human IgG4 Fc with S228P (EU numbers) omitted]
light: DIQMTQSPSSLSASVGDRVTITCRASQSISSYLNWYQQKPGKAPKLLIYAASSLQSGVPSRFSGSGSGTDFTLTISSLQPEDFATYYCQQFHKRSPQKFGQGTKVEIKRTVAAPSVFIFPPSDEQLKSGTASVVCLLNNFYPREAKVQWKVDNALQSGNSQESVTEQDSKDSTYSLSSTLTLSKADYEKHKVYACEVTHQGLSSPVTKSFNRGEC
Turning to B2, the EC50 (read off the curve) was determined as 0.1 nM.
